Source: patent US20140271457A1 (AbbVie / Abbott, published 2014)
Positions count from the first letter of the chain named.

B1: DVD2684 (bispecific antibody, human IgG1, kappa)
heavy: EVQLVESGGGLVQPGGSLRLSCAASGFTFSNYGVTWVRQAPGKGLEWVSMIWADGSTHYASSVKGRFTISRDNSKNTLYLQMNSLRAEDTAVYYCAREWQHGPVAYWGQGTLVTVSSASTKGPEVTLRESGPGLVKPTQTLTLTCTLYGFSLSTSDMGVDWIRQPPGKGLEWLAHIWWDDVKRYNPALKSRLTISKDTSKNQVVLKLTSVDPVDTATYYCARTVSSGYIYYAMDYWGQGTLVTVSS[here human IgG1 constant region without letters]
light: DIQMTQSPSSLSASVGDRVTITCRASQLVSSAVAWYQQKPGKAPKLLIYWASARHTGVPSRFSGSGSGTDFTLTISSLQPEDFATYYCQQHYKTPFTFGQGTKLEIKRTVAAPDIQMTQSPSSLSASVGDRVTISCRASQDIRNYLNWYQQKPGKAPKLLIFYTSKLHSGVPSRFSGSGSGTDYTLTISSLQPEDIATYYCQQGLTPPLTFGGGTKVEIKRTVAAPSVFIFPPSDEQLKSGTASVVCLLNNFYPREAKVQWKVDNALQSGNSQESVTEQDSKDSTYSLSSTLTLSKADYEKHKVYACEVTHQGLSSPVTKSFNRGEC
B2: DVD2686 (bispecific antibody, human IgG1, kappa)
heavy: B1 heavy
light: DIQMTQSPSSLSASVGDRVTITCRASQLVSSAVAWYQQKPGKAPKLLIYWASARHTGVPSRFSGSGSGTDFTLTISSLQPEDFATYYCQQHYKTPFTFGQGTKLEIKRTVAAPSVFIFPPDIQMTQSPSSLSASVGDRVTISCRASQDIRNYLNWYQQKPGKAPKLLIFYTSKLHSGVPSRFSGSGSGTDYTLTISSLQPEDIATYYCQQGLTPPLTFGGGTKVEIKRTVAAPSVFIFPPSDEQLKSGTASVVCLLNNFYPREAKVQWKVDNALQSGNSQESVTEQDSKDSTYSLSSTLTLSKADYEKHKVYACEVTHQGLSSPVTKSFNRGEC
B3: DVD2687 (bispecific antibody, human IgG1, kappa)
heavy: EVQLVESGGGLVQPGGSLRLSCAASGFTFSNYGVTWVRQAPGKGLEWVSMIWADGSTHYASSVKGRFTISRDNSKNTLYLQMNSLRAEDTAVYYCAREWQHGPVAYWGQGTLVTVSSASTKGPSVFPLAPEVTLRESGPGLVKPTQTLTLTCTLYGFSLSTSDMGVDWIRQPPGKGLEWLAHIWWDDVKRYNPALKSRLTISKDTSKNQVVLKLTSVDPVDTATYYCARTVSSGYIYYAMDYWGQGTLVTVSS[here human IgG1 constant region without letters]
light: B1 light
B4: DVD2734 (bispecific antibody, human IgG1, kappa)
heavy: B1 heavy with T35E, M50G, S61D, S62T, G65S
light: B1 light with R24K, A53T, R54L, K93R
B5: DVD2737 (bispecific antibody, human IgG1, kappa)
heavy: B3 heavy with T35E, M50G, S61D, S62T, G65S
light: B1 light with R24K, A53T, R54L, K93R
B6: DVD2736 (bispecific antibody, human IgG1, kappa)
heavy: B1 heavy with T35E, M50G, S61D, S62T, G65S
light: B2 light with R24K, A53T, R54L, K93R
B7: DVD2683 (bispecific antibody, human IgG1, kappa)
heavy: EVQLVESGGGLVQPGGSLRLSCAASGFTFSNYGVTWVRQAPGKGLEWVSMIWADGSTHYASSVKGRFTISRDNSKNTLYLQMNSLRAEDTAVYYCAREWQHGPVAYWGQGTLVTVSSGGGGSGGGGSEVTLRESGPGLVKPTQTLTLTCTLYGFSLSTSDMGVDWIRQPPGKGLEWLAHIWWDDVKRYNPALKSRLTISKDTSKNQVVLKLTSVDPVDTATYYCARTVSSGYIYYAMDYWGQGTLVTVSS[here human IgG1 constant region without letters]
light: DIQMTQSPSSLSASVGDRVTITCRASQLVSSAVAWYQQKPGKAPKLLIYWASARHTGVPSRFSGSGSGTDFTLTISSLQPEDFATYYCQQHYKTPFTFGQGTKLEIKRGGSGGGGSGDIQMTQSPSSLSASVGDRVTISCRASQDIRNYLNWYQQKPGKAPKLLIFYTSKLHSGVPSRFSGSGSGTDYTLTISSLQPEDIATYYCQQGLTPPLTFGGGTKVEIKRTVAAPSVFIFPPSDEQLKSGTASVVCLLNNFYPREAKVQWKVDNALQSGNSQESVTEQDSKDSTYSLSSTLTLSKADYEKHKVYACEVTHQGLSSPVTKSFNRGEC
B8: DVD2733 (bispecific antibody, human IgG1, kappa)
heavy: B7 heavy with T35E, M50G, S61D, S62T, G65S
light: B7 light with R24K, A53T, R54L, K93R
B9: DVD2784 (bispecific antibody, human IgG1, kappa)
heavy: EVQLVQSGAEVKKPGASVKVSCKASGYTFANYGIIWVRQAPGQGLEWMGWINTYTGKPTYAQKFQGRVTMTTDTSTSTAYMELSSLRSEDTAVYYCARKLFTTMDVTDNAMDYWGQGTTVTVSSASTKGPEVTLRESGPGLVKPTQTLTLTCTLYGFSLSTSDMGVDWIRQPPGKGLEWLAHIWWDDVKRYNPALKSRLTISKDTSKNQVVLKLTSVDPVDTATYYCARTVSSGYIYYAMDYWGQGTLVTVSS[here human IgG1 constant region without letters]
light: DIQMTQSPSSLSASVGDRVTITCRASQDISQYLNWYQQKPGKAPKLLIYYTSRLQSGVPSRFSGSGSGTDFTLTISSLQPEDFATYFCQQGNTWPPTFGQGTKLEIKRTVAAPDIQMTQSPSSLSASVGDRVTISCRASQDIRNYLNWYQQKPGKAPKLLIFYTSKLHSGVPSRFSGSGSGTDYTLTISSLQPEDIATYYCQQGLTPPLTFGGGTKVEIKRTVAAPSVFIFPPSDEQLKSGTASVVCLLNNFYPREAKVQWKVDNALQSGNSQESVTEQDSKDSTYSLSSTLTLSKADYEKHKVYACEVTHQGLSSPVTKSFNRGEC
B10: DVD2786 (bispecific antibody, human IgG1, kappa)
heavy: B9 heavy
light: DIQMTQSPSSLSASVGDRVTITCRASQDISQYLNWYQQKPGKAPKLLIYYTSRLQSGVPSRFSGSGSGTDFTLTISSLQPEDFATYFCQQGNTWPPTFGQGTKLEIKRTVAAPSVFIFPPDIQMTQSPSSLSASVGDRVTISCRASQDIRNYLNWYQQKPGKAPKLLIFYTSKLHSGVPSRFSGSGSGTDYTLTISSLQPEDIATYYCQQGLTPPLTFGGGTKVEIKRTVAAPSVFIFPPSDEQLKSGTASVVCLLNNFYPREAKVQWKVDNALQSGNSQESVTEQDSKDSTYSLSSTLTLSKADYEKHKVYACEVTHQGLSSPVTKSFNRGEC
B11: DVD2787 (bispecific antibody, human IgG1, kappa)
heavy: EVQLVQSGAEVKKPGASVKVSCKASGYTFANYGIIWVRQAPGQGLEWMGWINTYTGKPTYAQKFQGRVTMTTDTSTSTAYMELSSLRSEDTAVYYCARKLFTTMDVTDNAMDYWGQGTTVTVSSASTKGPSVFPLAPEVTLRESGPGLVKPTQTLTLTCTLYGFSLSTSDMGVDWIRQPPGKGLEWLAHIWWDDVKRYNPALKSRLTISKDTSKNQVVLKLTSVDPVDTATYYCARTVSSGYIYYAMDYWGQGTLVTVSS[here human IgG1 constant region without letters]
light: B9 light
B12: DVD2783 (bispecific antibody, human IgG1, kappa)
heavy: EVQLVQSGAEVKKPGASVKVSCKASGYTFANYGIIWVRQAPGQGLEWMGWINTYTGKPTYAQKFQGRVTMTTDTSTSTAYMELSSLRSEDTAVYYCARKLFTTMDVTDNAMDYWGQGTTVTVSSGGGGSGGGGSEVTLRESGPGLVKPTQTLTLTCTLYGFSLSTSDMGVDWIRQPPGKGLEWLAHIWWDDVKRYNPALKSRLTISKDTSKNQVVLKLTSVDPVDTATYYCARTVSSGYIYYAMDYWGQGTLVTVSS[here human IgG1 constant region without letters]
light: DIQMTQSPSSLSASVGDRVTITCRASQDISQYLNWYQQKPGKAPKLLIYYTSRLQSGVPSRFSGSGSGTDFTLTISSLQPEDFATYFCQQGNTWPPTFGQGTKLEIKRGGSGGGGSGDIQMTQSPSSLSASVGDRVTISCRASQDIRNYLNWYQQKPGKAPKLLIFYTSKLHSGVPSRFSGSGSGTDYTLTISSLQPEDIATYYCQQGLTPPLTFGGGTKVEIKRTVAAPSVFIFPPSDEQLKSGTASVVCLLNNFYPREAKVQWKVDNALQSGNSQESVTEQDSKDSTYSLSSTLTLSKADYEKHKVYACEVTHQGLSSPVTKSFNRGEC
B13: DVD3008 (bispecific antibody, human IgG1, kappa)
heavy: B12 heavy with A30N, T102N, M104V, D105A
light: B12 light with S30E, Q31N, W94Q

The binders below were run against Recombinant Human IL-13 (human, UniProt P35225 partial chain, limits assumed) (assay: cell-based or functional assay).
UniProt P35225, sequence (P35225 35-146 limits assumed): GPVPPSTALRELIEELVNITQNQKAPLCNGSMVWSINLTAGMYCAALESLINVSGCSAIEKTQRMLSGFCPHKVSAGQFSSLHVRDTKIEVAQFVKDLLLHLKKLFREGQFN

Compared with B1, B2 is 15-fold lower in “IL-13 Neutralization Assay IC50” value: 1.38 nM for the first, 0.094 nM for the second.

Going from B3 to B4, the “IL-13 Neutralization Assay IC50” value rises from 0.022 nM to 0.955 nM (43-fold).

First: B5
Second: B6
The “IL-13 Neutralization Assay IC50” value of the first is 2.7-fold lower: 0.061 nM for the first, 0.167 nM for the second.

B7 and B8 are within 1.5-fold of each other in “IL-13 Neutralization Assay IC50” value: 0.133 nM for the first, 0.119 nM for the second.

B9 and B10 are within 1.5-fold of each other in “IL-13 Neutralization Assay IC50” value: 0.214 nM for the first, 0.189 nM for the second.

Compared with B11, B12 is 17-fold higher in “IL-13 Neutralization Assay IC50” value: 0.054 nM for the first, 0.897 nM for the second.

B13 was tested, and the “IL-13 Neutralization Assay IC50” value was 0.278 nM.
